Measurements: PubChem BioAssay AID588342 (National Center for Advancing Translational Sciences (NCATS), 2011)
The campaign covered roughly 360,000 compounds. About 25,000 (6.9%) were called active. Inconclusive results, whose numbers are uncertain, are shown with a selection of clear calls. Calls come from the whole dose curve; as a rule, active = well fitted inhibition curve with a large enough effect; inconclusive = small, poorly fitted or top-dose-only effect; inactive = flat fitted curve, though single readings scatter. A potency beside an inconclusive call is a rough fit, not a confirmed value.

Target: Luciferin 4-monooxygenase (Photinus pyralis) (UniProt P08659)
Experiment: qHTS profiling assay for firefly luciferase inhibitor/activator using purifed enzyme and Km concentrations of substrates (counterscreen for miR-21 project); note: nearly all actives have a fitted effect of over 55% in size;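 for activity change, negative = inhibition: plate controls were vehicle for no effect and reference inhibitor for full effect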
Settings: purified FLuc, luminescence inhibition; activity change, negative = inhibition: at 57.5 µM (top of the series)
Method in brief: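 Purified P. pyralis luciferase (10nM final) with 10uM D-luciferin and 10uM ATP (Km levels) in 50mM Tris acetate pH 7.5, 10mM Mg acetate, 0.01% Tween-20, 0.05% BSA; qHTS 6-point titration, ~60 µM downward; luminescence read.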
Potency is the fitted concentration of half-maximal effect; tags give direction and shape of the fitted curve.

UniProt P08659, sequence (P08659 whole entry, looked up): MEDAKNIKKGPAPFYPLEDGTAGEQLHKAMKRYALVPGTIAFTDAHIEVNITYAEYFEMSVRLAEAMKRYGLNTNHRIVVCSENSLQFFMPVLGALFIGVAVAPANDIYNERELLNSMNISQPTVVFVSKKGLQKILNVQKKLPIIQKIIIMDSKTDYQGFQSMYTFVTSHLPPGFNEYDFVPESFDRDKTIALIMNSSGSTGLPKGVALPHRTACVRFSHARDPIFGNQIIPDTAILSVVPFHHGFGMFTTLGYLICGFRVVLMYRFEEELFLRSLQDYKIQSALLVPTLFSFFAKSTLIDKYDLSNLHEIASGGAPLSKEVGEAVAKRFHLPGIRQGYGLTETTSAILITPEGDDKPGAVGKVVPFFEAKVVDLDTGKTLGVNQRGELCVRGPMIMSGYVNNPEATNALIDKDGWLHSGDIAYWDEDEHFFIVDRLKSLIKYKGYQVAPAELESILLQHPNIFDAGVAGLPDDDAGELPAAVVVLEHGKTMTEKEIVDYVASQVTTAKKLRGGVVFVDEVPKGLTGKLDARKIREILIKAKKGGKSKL

Structure (SMILES)	Potency	activity change, negative = inhibition
Cc1nn(-c2ccccc2)c(C)c1/C=N/NC(=O)c1cc(-c2ccc(Br)s2)[nH]n1	inconclusive: 9.53 µM [inhibitor, partial curve]	–
COC(=O)c1ccc(NC(=O)c2c(NCc3ccc(OC)c(OC)c3)sc3c2CCCC3)cc1	inconclusive: 13.5 µM [inhibitor, partial curve]	–
COc1ccc(-c2cc3c(=O)n(CC(=O)NCc4ccc(F)cc4)ncn3n2)cc1	inconclusive: 0.338 µM [inhibitor, full curve]	–
CC(=O)c1ccc(N2CCN(CC(=O)Nc3ccccc3C(=O)NC3CC3)CC2)c(F)c1	–	inactive: 2.89%
CC(=O)c1cccc(NC(=O)c2cc(-c3ccc4c(c3)OCCO4)on2)c1	active: 0.151 µM	–
COC(=O)c1cc(NC(=O)c2ccc(F)cc2)cc(C(=O)OC)c1	inconclusive: 37.9 µM [inhibitor, partial curve, poor fit]	–
CC(C)=CC(=O)NCCc1ccccc1	active: 13.5 µM	–
Cc1ccc2nc(-c3ccc(NC(=O)COCC(=O)O)cc3)sc2c1	active: 1.2 µM	–
Cc1cccn2c(=O)c3cc(C(=O)N4CCCCC4)sc3nc12	inconclusive: 19 µM [inhibitor, single point]	–
C=CCn1c(-c2ccc(OC)c(OC)c2)n[nH]c1=S	inconclusive: 37.9 µM [inhibitor, partial curve, poor fit]	–
O=C(NCc1ccco1)C(=O)NCC1OCCCN1S(=O)(=O)c1ccccc1 (configuration not stated)	–	inactive: -0.288%
Cc1cnc(C(=O)Nc2ccc(N3CCOCC3)cc2)cn1	inconclusive: 21.3 µM [inhibitor, single point]	–
Cc1cc(C)n(-c2ccc(C(=O)N3CCN(S(=O)(=O)c4ccc(Cl)cc4)CC3)cc2)n1	–	inactive: -8.97%
COc1ccc(N=C2C(=Nc3ccc(OC)cc3)N(c3ccc(N(C)C)cc3)C(=S)N2c2ccc(OC)cc2)cc1	–	inactive: 1.42%
CS(=O)(=O)N1CCC(N2CCN(Cc3ccc(F)cc3)C(=O)C2=O)CC1	–	inactive: 2.06%
CCOC(=O)N/N=C/c1ccccc1F	inconclusive: 21.3 µM [inhibitor, partial curve]	–
Cc1cc(/C=C2\SC(=S)NC2=O)c(C)n1-c1cccc(O)c1	active: 1.07 µM	–
COc1cccc(Nc2ccc(-n3ccnc3)nn2)c1	inconclusive: 26.9 µM [inhibitor, single point]	–
CCn1c(CN2CCN(C)CC2)nc2cc(NC(=O)c3cc(OC)c(OC)c(OC)c3)ccc21	–	inactive: -1.51%
O=C(CSc1ccccn1)Nc1cccc(NC(=O)CSc2ccccn2)n1	inconclusive: 37.9 µM [inhibitor, partial curve, poor fit]	–
CN(c1cccc(NC(=O)CSc2ccc(Cl)cc2)c1)S(C)(=O)=O	inconclusive: 21.3 µM [inhibitor, single point]	–
Cc1nc2sc3c(c2c2nnc(SCC(=O)NCc4ccco4)n12)CCCC3	inconclusive: 37.9 µM [inhibitor, partial curve, poor fit]	–
CCCn1cnc2cc(NC(=O)c3cccs3)ccc21	active: 10.7 µM	–
NC(=O)C1(c2ccccc2)OC1c1ccccc1 (configuration not stated)	inconclusive: 30.1 µM [inhibitor, partial curve, poor fit]	–

Structure (SMILES)	Potency	activity change, negative = inhibition
CCCCOc1ccc(C(=O)NCCc2csc3nc(-c4ccccc4F)nn23)cc1	inconclusive: 23.9 µM [inhibitor, partial curve]	–
COCCn1c(C)cc(C2=NNC(=Nc3ccc(F)cc3)SC2)c1C	active: 3.38 µM	–
Cc1cc(C(=O)COC(=O)c2ccc3c(c2)OCO3)c(C)n1Cc1cccs1	active: 2.69 µM	–
COc1ccc(C)cc1N(C)C(=O)c1coc(=O)c2ccccc12	–	inactive: -0.441%
O=C(OCC1CCCO1)c1ccc2c(c1)N(Cc1ccccc1F)C(=O)c1ccccc1S2(=O)=O (configuration not stated)	–	inactive: -7.44%
COc1ccc(CNc2cc(C)ccn2)c(O)c1	inconclusive: 26.9 µM [inhibitor, single point]	–
CCOc1ccccc1NC(=O)CSc1nccn1Cc1ccc(F)cc1	–	inactive: 3.01%
COc1ccc(C(=O)Nc2ccnn2C2CCN(C3CCC3)CC2)cc1	–	inactive: -1.93%
Cc1cccc(-c2noc(-c3ccccc3C(=O)NCc3ccco3)n2)c1	active: 9.53 µM	–
CN=Cc1cc(-c2ccccc2)sc1O	inconclusive: 13.5 µM [inhibitor, partial curve]	–
C/C(=N\Nc1ccc(Cl)c(C(=O)O)c1)c1cc2ccccc2o1	active: 26.9 µM	–
O=c1cc(-c2ccccc2)[nH]c2ccccc12	inconclusive: 26.9 µM [inhibitor, partial curve, poor fit]	–
Cc1ccc(Cl)cc1-n1ncc2c(N3CCC(C(N)=O)CC3)ncnc21	–	inactive: -2.86%
COc1cccc(OCc2nn3c(=O)c(-c4ccccc4)nnc3s2)c1	–	inactive: 2.61%
COC(=O)COc1ccc2c(-c3cccc([N+](=O)[O-])c3)cc(=O)oc2c1	inconclusive: 19 µM [inhibitor, partial curve]	–
CCC(=O)Nc1ccc(C(=O)Nc2cc(C)on2)cc1	inconclusive: 30.1 µM [inhibitor, partial curve, poor fit]	–
CCOC(=O)COc1ccc(C(=O)c2ccccc2)c(O)c1	inconclusive: 26.9 µM [inhibitor, partial curve, poor fit]	–
CN(C(=O)COC(=O)C1(C)CC1(Cl)Cl)c1c(N)n(Cc2ccccc2)c(=O)[nH]c1=O (configuration not stated)	–	inactive: 2.59%
O=C(CSc1nncs1)Nc1cc(-c2ccccc2)nn1-c1ccccc1	inconclusive: 33.8 µM [inhibitor, single point]	–
C=CCCC(=O)Nc1nc(C)c(-c2csc(Nc3cc(OC)ccc3OC)n2)s1	–	inactive: -18.5%
Cc1ccc2[nH]c3c(NCc4ccco4)ncnc3c2c1	active: 13.5 µM	–
Brc1ccc(-c2csc(N3CCOCC3)n2)cc1	active: 8.49 µM	–
CC(=O)c1sc(NC(=O)c2c(F)cccc2F)nc1-c1ccccc1	inconclusive: 30.1 µM [inhibitor, single point]	–
O=C(CSc1ccc2ccccc2n1)N/N=C/c1ccccc1O	inconclusive: 23.9 µM [inhibitor, single point]	–

Structure (SMILES)	Potency	activity change, negative = inhibition
O=C(c1cc(-c2cccs2)on1)N1CCN(c2ccc(F)cc2)CC1	active: 23.9 µM	–
CCCCSc1nnc(-c2ccccc2N)c(=O)[nH]1	inconclusive: 23.9 µM [inhibitor, single point]	–
O=C(O)c1ccc(-c2nc(-c3cccc(C(F)(F)F)c3)cs2)cc1	inconclusive: 16.9 µM [inhibitor, partial curve]	–
O=C(CSc1nc2ccc(NC(=O)c3ccccc3C(=O)O)cc2s1)Nc1c(Cl)cccc1Cl	inconclusive: 26.9 µM [inhibitor, single point]	–
CC(C)CSc1nc2c(=O)[nH][nH]c(=O)c2n1Cc1ccccc1	inconclusive: 8.49 µM [inhibitor, partial curve, poor fit]	–
Cc1ccc(C(=O)CSc2nnc3ccc4ccccc4n23)cc1	inconclusive: 26.9 µM [inhibitor, single point]	–
CCOC(=O)c1nnsc1Nc1ccc(C)c(C)c1	inconclusive: 15.1 µM [inhibitor, partial curve]	–
O=c1[nH]c2ccccc2nc1/C=C/c1ccc(O)cc1	active: 6.75 µM	–
C=CCN(Cc1cc(OC)ccc1OC)C(=O)c1cc2ccc(OC)cc2[nH]1	inconclusive: 37.9 µM [inhibitor, partial curve, poor fit]	–
CCOC(=O)C1CCCN(S(=O)(=O)c2cc(-c3cc(C)no3)ccc2C)C1 (configuration not stated)	–	inactive: -9.81%
Cc1cccc(N(C)c2nc3ccc(C)cc3n3nnnc23)c1	inconclusive: 13.5 µM [inhibitor, partial curve, poor fit]	–
Cc1ccc(CNc2ncc(-c3ccc4c(c3)OCO4)n2C)cc1	inconclusive: 26.9 µM [inhibitor, partial curve, poor fit]	–
CCN(CC(=O)Nc1c(F)cccc1F)C(=O)c1ccc(-c2ccc(C(C)=O)cc2)o1	inconclusive: 21.3 µM [inhibitor, partial curve, poor fit]	–
C=CCn1c(C)cc(C2=NNC(=Nc3ccc(C)cc3)SC2)c1C	inconclusive: 10.7 µM [inhibitor, partial curve]	–
Cc1cc(C)nc(Nc2nc(=O)c3ccccc3s2)n1	active: 16.9 µM	–
CCOC(=O)Cc1csc(NC(=O)c2ccc(Cl)s2)n1	inconclusive: 23.9 µM [inhibitor, partial curve]	–
COc1cc(C(=O)Nc2nc3ccccc3s2)ccc1OCc1c(C)noc1C	inconclusive: 19 µM [inhibitor, partial curve]	–
O=C(CCN1C(=O)c2ccccc2C1=O)N1CCC(c2ccccc2)C1 (configuration not stated)	inconclusive: 15.1 µM [inhibitor, partial curve]	–
CC(/C=N/NC(=O)c1cc(-c2cccs2)[nH]n1)=C\c1ccccc1	inconclusive: 5.36 µM [inhibitor, partial curve, poor fit]	–
CCOCCn1ccc2c(OCC(=O)NCc3ccccc3)cccc2c1=O	–	inactive: 6.76%
S=C(NNC(=S)Nc1ccccc1)Nc1ccccc1	inconclusive: 23.9 µM [inhibitor, single point]	–
CCOC(=O)c1ccc(NC(=O)CC2C(=O)N(c3ccc(F)cc3)C(=O)N2CCCOC)cc1 (configuration not stated)	inconclusive: 15.1 µM [inhibitor, partial curve, poor fit]	–
O=C(O)CCc1ccc(-c2ccc(Cl)cc2)n1-c1cccc(C(F)(F)F)c1	inconclusive: 13.5 µM [inhibitor, partial curve]	–
Cc1ccc(CNC(=O)c2ccc(Br)o2)cc1	inconclusive: 37.9 µM [inhibitor, partial curve, poor fit]	–
